Test results published in PMC3713520.
Results are given in words; binding and its absence hold for the method and conditions named. For some assays here: In cells and extracts the contact can be indirect. Some results given as binding are weak or reduced against the parent protein; the word gives no strength. Where a sequence is shown, tags or fusion partners need not be part of it.

The chains behind the UniProt entries cited, without tags or fusion partners. Where a name states a change or a piece, a line headed by the entry shows the natural chain unless it says otherwise. Residues count along the entry.
UniProt Q13586: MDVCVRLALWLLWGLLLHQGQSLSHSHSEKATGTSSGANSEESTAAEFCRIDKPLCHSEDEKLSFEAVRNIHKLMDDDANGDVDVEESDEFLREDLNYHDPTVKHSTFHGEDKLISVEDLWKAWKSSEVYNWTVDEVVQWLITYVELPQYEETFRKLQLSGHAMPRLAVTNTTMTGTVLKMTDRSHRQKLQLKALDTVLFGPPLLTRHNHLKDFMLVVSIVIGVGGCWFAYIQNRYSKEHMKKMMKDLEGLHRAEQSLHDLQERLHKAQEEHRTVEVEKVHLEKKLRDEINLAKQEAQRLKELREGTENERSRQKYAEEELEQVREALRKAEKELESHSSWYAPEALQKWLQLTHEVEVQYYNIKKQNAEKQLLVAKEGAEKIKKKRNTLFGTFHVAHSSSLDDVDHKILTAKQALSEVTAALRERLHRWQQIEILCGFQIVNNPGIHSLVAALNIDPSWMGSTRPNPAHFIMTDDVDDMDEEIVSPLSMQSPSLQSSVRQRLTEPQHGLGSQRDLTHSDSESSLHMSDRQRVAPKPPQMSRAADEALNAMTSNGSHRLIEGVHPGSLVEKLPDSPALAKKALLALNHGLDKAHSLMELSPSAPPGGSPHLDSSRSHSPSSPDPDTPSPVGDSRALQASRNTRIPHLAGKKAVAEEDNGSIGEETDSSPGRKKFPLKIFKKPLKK
GST-CC1-CAD (235–448aa): residues 235-448 of Q13586
GST-CAD (342–448aa): residues 342-448 of Q13586
UniProt Q96D31: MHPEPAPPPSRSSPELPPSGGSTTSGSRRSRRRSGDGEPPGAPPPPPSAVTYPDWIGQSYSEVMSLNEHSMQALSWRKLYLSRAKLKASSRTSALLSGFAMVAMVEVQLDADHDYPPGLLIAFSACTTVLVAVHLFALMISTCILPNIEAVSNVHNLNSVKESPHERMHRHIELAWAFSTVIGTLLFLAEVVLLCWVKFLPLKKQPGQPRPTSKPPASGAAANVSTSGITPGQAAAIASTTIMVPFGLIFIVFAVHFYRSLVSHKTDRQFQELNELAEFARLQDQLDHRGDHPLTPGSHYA
GST-Orai1-NT (1–87aa): residues 1-87 of Q96D31
GST-Orai1-CT (228–301aa): residues 228-301 of Q96D31

Columns and labels:
YFP-α-SNAP (human) = biological target: T1, YFP-α-SNAP (human) (UniProt P54920); assay: co-IP; whole cell lysates of store-depleted HEK 293 cells co-expressing the two proteins; lysis in 1% CHAPS or 1% NP-40, 150 mM NaCl, 50 mM Tris pH 8.0; IP with anti-Myc, anti-Flag, anti-GFP or anti-α-SNAP antibody overnight at 4°C, Protein A Sepharose; Western blot
T1 sequence: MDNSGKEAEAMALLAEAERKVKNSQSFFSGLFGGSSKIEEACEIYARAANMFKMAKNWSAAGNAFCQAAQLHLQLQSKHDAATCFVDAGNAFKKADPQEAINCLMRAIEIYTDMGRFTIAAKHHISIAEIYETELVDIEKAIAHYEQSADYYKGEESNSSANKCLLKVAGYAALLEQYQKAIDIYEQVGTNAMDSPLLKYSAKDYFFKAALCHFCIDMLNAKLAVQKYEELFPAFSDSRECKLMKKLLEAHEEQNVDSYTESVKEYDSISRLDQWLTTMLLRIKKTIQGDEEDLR

YFP-α-SNAP-L294A (human) = biological target: T2, YFP-α-SNAP-L294A (human) (UniProt P54920); assay: as above
T2 sequence: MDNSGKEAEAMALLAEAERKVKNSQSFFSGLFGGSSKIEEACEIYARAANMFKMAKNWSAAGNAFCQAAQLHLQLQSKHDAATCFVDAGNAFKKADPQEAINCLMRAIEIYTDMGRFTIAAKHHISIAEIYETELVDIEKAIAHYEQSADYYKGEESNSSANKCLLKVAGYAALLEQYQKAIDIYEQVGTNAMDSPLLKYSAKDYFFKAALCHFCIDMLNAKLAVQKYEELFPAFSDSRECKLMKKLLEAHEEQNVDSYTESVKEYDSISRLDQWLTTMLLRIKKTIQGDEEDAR

[1] = biological target: T3, α-SNAP (without YFP, expressed in HEK 293 cells) (human) (UniProt P54920); assay: as above
T3 sequence: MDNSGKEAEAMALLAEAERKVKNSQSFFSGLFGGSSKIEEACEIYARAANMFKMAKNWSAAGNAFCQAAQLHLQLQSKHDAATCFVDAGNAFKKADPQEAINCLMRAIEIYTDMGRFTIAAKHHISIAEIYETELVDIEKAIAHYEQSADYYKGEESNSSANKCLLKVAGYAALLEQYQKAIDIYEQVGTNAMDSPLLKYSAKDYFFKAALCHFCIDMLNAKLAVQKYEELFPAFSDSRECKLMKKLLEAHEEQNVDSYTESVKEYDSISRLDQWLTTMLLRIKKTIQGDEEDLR

Stim1-Myc [2] = biological target: Stim1-Myc (UniProt Q13586); assay: as above
Flag-Orai1 (human) [3] = biological target: Flag-Orai1 (human) (UniProt Q96D31); assay: as above
Flag-TRPC6 = biological target: T4, Flag-TRPC6 (UniProt Q9Y210); assay: pull-down; purified recombinant α-SNAP (100 nM) incubated 1 hr at 4°C with Flag-Orai1, Flag-TRPC6 or Stim1-Myc immunoprecipitates bound to Protein A Sepharose beads; beads washed three times; Western blot with anti-α-SNAP; only the binder purified
T4 sequence: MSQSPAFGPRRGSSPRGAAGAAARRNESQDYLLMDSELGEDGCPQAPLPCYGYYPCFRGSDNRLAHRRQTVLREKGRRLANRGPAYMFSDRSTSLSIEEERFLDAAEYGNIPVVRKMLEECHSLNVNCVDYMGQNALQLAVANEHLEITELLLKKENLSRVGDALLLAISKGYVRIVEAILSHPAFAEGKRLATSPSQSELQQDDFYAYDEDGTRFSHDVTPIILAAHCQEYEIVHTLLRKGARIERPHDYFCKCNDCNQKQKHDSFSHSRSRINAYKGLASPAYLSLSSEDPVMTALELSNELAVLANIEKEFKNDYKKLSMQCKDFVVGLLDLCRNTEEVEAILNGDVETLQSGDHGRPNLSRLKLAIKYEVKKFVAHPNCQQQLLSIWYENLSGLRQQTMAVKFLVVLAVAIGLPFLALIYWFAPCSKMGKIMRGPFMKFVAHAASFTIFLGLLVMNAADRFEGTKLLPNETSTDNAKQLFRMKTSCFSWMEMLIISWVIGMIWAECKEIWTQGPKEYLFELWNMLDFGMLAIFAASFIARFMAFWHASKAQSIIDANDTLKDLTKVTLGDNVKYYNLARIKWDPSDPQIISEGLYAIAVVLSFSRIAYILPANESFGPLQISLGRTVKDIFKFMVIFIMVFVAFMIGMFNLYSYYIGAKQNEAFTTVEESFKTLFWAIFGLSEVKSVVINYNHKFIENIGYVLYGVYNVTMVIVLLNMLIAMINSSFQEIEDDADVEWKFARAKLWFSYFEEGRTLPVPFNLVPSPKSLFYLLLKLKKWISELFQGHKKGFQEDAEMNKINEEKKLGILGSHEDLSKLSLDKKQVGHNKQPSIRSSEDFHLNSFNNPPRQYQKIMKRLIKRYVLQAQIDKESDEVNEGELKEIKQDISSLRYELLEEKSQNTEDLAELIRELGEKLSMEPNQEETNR

Stim1-Myc [4] = biological target: Stim1-Myc (UniProt Q13586); assay: as above
Flag-Orai1 (human) [5] = biological target: Flag-Orai1 (human) (UniProt Q96D31); assay: as above
GST-CC1-CAD (235–448aa) = GST-CC1-CAD (235–448aa) (UniProt Q13586); assay: pull-down; GST-tagged Stim1 or Orai1 fragments from E. coli immobilised on glutathione resin, incubated with purified His-α-SNAP (10 nM) for 1 hr; washed; Western blot with anti-α-SNAP; both purified
[6] = biological target: GST-Orai1-NT (1–87aa) (human) (UniProt Q96D31); assay: as above
GST-CAD (342–448aa) = GST-CAD (342–448aa) (UniProt Q13586); assay: as above
[7] = biological target: GST-Orai1-CT (228–301aa) (human) (UniProt Q96D31); assay: as above

Stim1-Myc (from UniProt Q13586 23-685)
binding (YFP-α-SNAP (human)): binds
binding (YFP-α-SNAP-L294A (human)): binds

Flag-Orai1 (from UniProt Q96D31 1-301)
binding [1]: binds
binding (YFP-α-SNAP (human)): binds
binding (YFP-α-SNAP-L294A (human)): binds

B1: YFP-α-SNAP (protein, UniProt P54920 1-295)
chain: MDNSGKEAEAMALLAEAERKVKNSQSFFSGLFGGSSKIEEACEIYARAANMFKMAKNWSAAGNAFCQAAQLHLQLQSKHDAATCFVDAGNAFKKADPQEAINCLMRAIEIYTDMGRFTIAAKHHISIAEIYETELVDIEKAIAHYEQSADYYKGEESNSSANKCLLKVAGYAALLEQYQKAIDIYEQVGTNAMDSPLLKYSAKDYFFKAALCHFCIDMLNAKLAVQKYEELFPAFSDSRECKLMKKLLEAHEEQNVDSYTESVKEYDSISRLDQWLTTMLLRIKKTIQGDEEDLR
binding (Stim1-Myc [2]): binds
binding (Flag-Orai1 (human) [3]): binds

B2: purified recombinant α-SNAP (His-α-SNAP) (protein, UniProt P54920 1-295)
chain: MDNSGKEAEAMALLAEAERKVKNSQSFFSGLFGGSSKIEEACEIYARAANMFKMAKNWSAAGNAFCQAAQLHLQLQSKHDAATCFVDAGNAFKKADPQEAINCLMRAIEIYTDMGRFTIAAKHHISIAEIYETELVDIEKAIAHYEQSADYYKGEESNSSANKCLLKVAGYAALLEQYQKAIDIYEQVGTNAMDSPLLKYSAKDYFFKAALCHFCIDMLNAKLAVQKYEELFPAFSDSRECKLMKKLLEAHEEQNVDSYTESVKEYDSISRLDQWLTTMLLRIKKTIQGDEEDLR
binding (Flag-TRPC6): no binding (tested: 100 nM)
binding (Stim1-Myc [4]): binds
binding (Flag-Orai1 (human) [5]): binds
binding (GST-CC1-CAD (235–448aa)): binds weakly
binding [6]: binds weakly
binding (GST-CAD (342–448aa)): binds
binding [7]: binds
